According to the supplement of paper PMC4967469:

Columns and labels:
Assay in all cases: Viability of human cancer cell lines after 72 h of drug (GDSC screen)
Vinblastine = compound: CC[C@]1(O)C[C@@H]2CN(CCc3c([nH]c4ccccc34)[C@@](C(=O)OC)(c3cc4c(cc3OC)N(C)[C@H]3[C@@](O)(C(=O)OC)[C@H](OC(C)=O)[C@]5(CC)C=CCN6CC[C@]43[C@@H]65)C2)C1 [Vinblastine]; settings: top dose 0.1 µM; top dose inferred
Method: (§1)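 Human cancer cell lines in 384-well plates, medium with 10% serum, drug for 72 h over a 256-fold dose range (nine 2-fold or five 4-fold steps up to the top dose). Adherent lines were fixed and stained with the nucleic acid dye Syto60, suspension lines read with resazurin; signal relative to control wells, capped at 0 and 100%. One two-parameter sigmoid per drug and line, fitted in a mixed model over all curves with the slope shared within a line.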

XMD13-2 = compound: O=C(NC1CC1)c1cccc(-c2ccc3c(NC(=O)C4CC4)n[nH]c3c2)c1 [XMD13-2]; settings: top dose 10.24 µM; top dose inferred
Method: as §1

Afatinib = compound: CN(C)C/C=C/C(=O)Nc1cc2c(Nc3ccc(F)c(Cl)c3)ncnc2cc1O[C@H]1CCOC1 [Afatinib]
Method: as §1

PF-562271 = compound: CN(c1ncccc1CNc1nc(Nc2ccc3c(c2)CC(=O)N3)ncc1C(F)(F)F)S(C)(=O)=O [PF-562271]; settings: top dose 2.56 µM; top dose inferred
Method: as §1

SNX-2112 = compound: CC1(C)CC(=O)c2c(C(F)(F)F)nn(-c3ccc(C(N)=O)c(N[C@H]4CC[C@H](O)CC4)c3)c2C1 [SNX-2112]; settings: top dose 2.56 µM
Method: as §1

[1] = top dose 0.5 µM, screen: GDSC drug entry 1032
[2] = top dose 10 µM, screen: GDSC drug entry 1377, top dose inferred

## CCF-STTG1 (glioma, adherent)
Vinblastine
  AUC: 0.702
  IC50: 23.3 nM
XMD13-2
  AUC: 0.955
  IC50: > 10200 nM
Afatinib; [1]
  AUC: 0.985
  IC50: > 500 nM
Afatinib; [2]
  AUC: 0.987
  IC50: > 10000 nM
PF-562271
  AUC: 0.923
  IC50: > 2560 nM

## Becker (glioma, adherent)
Vinblastine
  AUC: 0.33
  IC50: 1.96 nM
XMD13-2
  AUC: 0.877
  IC50: > 10200 nM
Afatinib; [1]
  AUC: 0.967
  IC50: > 500 nM
Afatinib; [2]
  AUC: 0.967
  IC50: > 10000 nM
PF-562271
  AUC: 0.87
  IC50: > 2560 nM

## IM-9 (myeloma, suspension)
Vinblastine
  AUC: 0.752
  IC50: 29.3 nM
Afatinib; [1]
  AUC: 0.99
  IC50: > 500 nM
Afatinib; [2]
  AUC: 0.991
  IC50: > 10000 nM
PF-562271
  AUC: 0.991
  IC50: > 2560 nM

## C32 (melanoma, adherent)
Vinblastine
  AUC: 0.734
  IC50: 30.7 nM
XMD13-2
  AUC: 0.986
  IC50: > 10200 nM
SNX-2112
  AUC: 0.41
  IC50: 89.4 nM
PF-562271
  AUC: 0.986
  IC50: > 2560 nM

## KASUMI-1 (acute myeloid leukaemia, suspension)
Vinblastine
  AUC: 0.645
  IC50: 15.7 nM
XMD13-2
  AUC: 0.881
  IC50: > 10200 nM
Afatinib; [1]
  AUC: 0.957
  IC50: > 500 nM
Afatinib; [2]
  AUC: 0.903
  IC50: > 10000 nM
PF-562271
  AUC: 0.867

## EHEB (lymphoid neoplasm, suspension)
Vinblastine
  AUC: 0.755
  IC50: 49 nM
Afatinib; [1]
  AUC: 0.974
  IC50: > 500 nM
Afatinib; [2]
  AUC: 0.969
  IC50: > 10000 nM
PF-562271
  AUC: 0.966
  IC50: > 2560 nM

## DOHH-2 (B-cell lymphoma, suspension)
Vinblastine
  AUC: 0.332
  IC50: 2.16 nM
Afatinib; [1]
  AUC: 0.981
  IC50: > 500 nM
PF-562271
  AUC: 0.95
  IC50: > 2560 nM

## NCI-H1623 (lung adenocarcinoma, adherent)
Vinblastine
  AUC: 0.919
  IC50: > 100 nM
XMD13-2
  AUC: 0.985
  IC50: > 10200 nM
SNX-2112
  AUC: 0.922
  IC50: > 2560 nM
PF-562271
  AUC: 0.98
  IC50: > 2560 nM

## NB17 (neuroblastoma, adherent)
Vinblastine
  AUC: 0.675
  IC50: 20.8 nM
Afatinib; [1]
  AUC: 0.984
  IC50: > 500 nM
Afatinib; [2]
  AUC: 0.982
  IC50: > 10000 nM
SNX-2112
  AUC: 0.787
  IC50: 1300 nM
PF-562271
  AUC: 0.922
  IC50: > 2560 nM

## HARA (lung squamous cell carcinoma, adherent)
Vinblastine
  AUC: 0.446
  IC50: 4.34 nM
XMD13-2
  AUC: 0.898
  IC50: > 10200 nM
SNX-2112
  AUC: 0.49
  IC50: 149 nM
PF-562271
  AUC: 0.907
  IC50: > 2560 nM

## SCC90 (head and neck, adherent)
Vinblastine
  AUC: 0.66
  IC50: 21.1 nM
Afatinib; [1]
  AUC: 0.724
  IC50: 180 nM
Afatinib; [2]
  AUC: 0.725
  IC50: 3620 nM
PF-562271
  AUC: 0.834
  IC50: > 2560 nM

## MV-4-11 (leukaemia, suspension)
Vinblastine
  AUC: 0.33
  IC50: 2.32 nM
XMD13-2
  AUC: 0.847
  IC50: 5620 nM
SNX-2112
  AUC: 0.331
  IC50: 59.8 nM
PF-562271
  AUC: 0.611
  IC50: 304 nM

## H3255 (lung adenocarcinoma, adherent)
Vinblastine
  AUC: 0.682
  IC50: 22.4 nM
XMD13-2
  AUC: 0.959
  IC50: > 10200 nM
SNX-2112
  AUC: 0.911
  IC50: > 2560 nM
PF-562271
  AUC: 0.928
  IC50: > 2560 nM

## U-2-OS (osteosarcoma, adherent)
Vinblastine
  AUC: 0.712
  IC50: 26.5 nM
XMD13-2
  AUC: 0.957
  IC50: > 10200 nM
SNX-2112
  AUC: 0.981
  IC50: > 2560 nM
PF-562271
  AUC: 0.904
  IC50: > 2560 nM

## LB647-SCLC (small cell lung carcinoma, semi-adherent)
Vinblastine
  AUC: 0.699
  IC50: 24.3 nM
Afatinib; [1]
  AUC: 0.985
  IC50: > 500 nM
Afatinib; [2]
  AUC: 0.982
  IC50: > 10000 nM
PF-562271
  AUC: 0.973
  IC50: > 2560 nM

## DoTc2-4510 (cervix, adherent)
Vinblastine
  AUC: 0.655
  IC50: 16.4 nM
XMD13-2
  AUC: 0.962
  IC50: > 10200 nM
Afatinib; [1]
  AUC: 0.852
  IC50: 355 nM
Afatinib; [2]
  AUC: 0.865
  IC50: 8110 nM
SNX-2112
  AUC: 0.593
  IC50: 283 nM

## H290 (mesothelioma, adherent)
Vinblastine
  AUC: 0.574
  IC50: 9.8 nM
XMD13-2
  AUC: 0.989
  IC50: > 10200 nM
Afatinib; [1]
  AUC: 0.9
  IC50: > 500 nM
Afatinib; [2]
  AUC: 0.719
  IC50: 2440 nM
PF-562271
  AUC: 0.947
  IC50: > 2560 nM

## IGR-37 (melanoma, adherent)
Vinblastine
  AUC: 0.452
  IC50: 4.69 nM
XMD13-2
  AUC: 0.989
  IC50: > 10200 nM
Afatinib; [1]
  AUC: 0.989
  IC50: > 500 nM
Afatinib; [2]
  AUC: 0.988
  IC50: > 10000 nM
SNX-2112
  AUC: 0.421
  IC50: 99 nM

## LCLC-97TM1 (large cell lung carcinoma, adherent)
Vinblastine
  AUC: 0.47
  IC50: 5.13 nM
XMD13-2
  AUC: 0.75
  IC50: 3620 nM
SNX-2112
  AUC: 0.369
  IC50: 66.9 nM
PF-562271
  AUC: 0.867
  IC50: > 2560 nM

## OVK-18 (ovary, adherent)
Vinblastine
  AUC: 0.545
  IC50: 8.41 nM
XMD13-2
  AUC: 0.985
  IC50: > 10200 nM
Afatinib; [1]
  AUC: 0.984
  IC50: > 500 nM
Afatinib; [2]
  AUC: 0.972
  IC50: > 10000 nM
SNX-2112
  AUC: 0.972
  IC50: > 2560 nM

## JHU-029 (head and neck, adherent)
Vinblastine
  AUC: 0.368
  IC50: 2.47 nM
Afatinib; [1]
  AUC: 0.6
  IC50: 62.7 nM
Afatinib; [2]
  AUC: 0.318
  IC50: 171 nM
PF-562271
  AUC: 0.914
  IC50: > 2560 nM

## JHOS-2 (ovary, adherent)
Vinblastine
  AUC: 0.643
  IC50: 16.7 nM
XMD13-2
  AUC: 0.939
  IC50: > 10200 nM
Afatinib; [1]
  AUC: 0.724
  IC50: 152 nM
Afatinib; [2]
  AUC: 0.716
  IC50: 2850 nM
SNX-2112
  AUC: 0.634
  IC50: 401 nM

## TE-4 (oesophagus, adherent)
Vinblastine
  AUC: 0.367
  IC50: 2.69 nM
XMD13-2
  AUC: 0.97
  IC50: > 10200 nM
Afatinib; [1]
  AUC: 0.257
  IC50: 6.32 nM
Afatinib; [2]
  AUC: 0.065
  IC50: < 39.1 nM
SNX-2112
  AUC: 0.95
  IC50: > 2560 nM

## OVCA420 (ovary, adherent)
Vinblastine
  AUC: 0.971
  IC50: > 100 nM
XMD13-2
  AUC: 0.975
  IC50: > 10200 nM
Afatinib; [1]
  AUC: 0.58
  IC50: 55.8 nM
Afatinib; [2]
  AUC: 0.27
  IC50: 109 nM
SNX-2112
  AUC: 0.493
  IC50: 152 nM

## NCI-H1963 (small cell lung carcinoma, suspension)
Vinblastine
  AUC: 0.649
  IC50: 15.3 nM
Afatinib; [1]
  AUC: 0.991
  IC50: > 500 nM
SNX-2112
  AUC: 0.959
  IC50: > 2560 nM
PF-562271
  AUC: 0.928
  IC50: > 2560 nM

## 23132-87 (stomach, adherent)
Vinblastine
  AUC: 0.58
  IC50: 10.4 nM
XMD13-2
  AUC: 0.945
  IC50: > 10200 nM
Afatinib; [1]
  AUC: 0.982
  IC50: > 500 nM
Afatinib; [2]
  AUC: 0.975
  IC50: > 10000 nM
PF-562271
  AUC: 0.911
  IC50: > 2560 nM

## PEO1 (ovary, adherent)
Vinblastine
  AUC: 0.565
  IC50: 9.47 nM
XMD13-2
  AUC: 0.946
  IC50: > 10200 nM
Afatinib; [1]
  AUC: 0.868
  IC50: 489 nM
Afatinib; [2]
  AUC: 0.889
  IC50: > 10000 nM
SNX-2112
  AUC: 0.923
  IC50: > 2560 nM

IC50 is the fitted dose that halves viability relative to control wells, and lower means more sensitive; fits outside the tested doses are given as limits. The AUC spans the tested range (256-fold, ending at the top dose) of the same fit; it is 1 without any effect and falls as sensitivity rises. For some assays here: Any top dose called inferred is not printed in the source and was worked back from the curve model. For some assays here: An entry number marks a drug with two screens in the source, which often give different values.
